Test results from patent publication US20230159603A1 (XILIO DEVELOPMENT, published 2023).
Blank lines part the entries; values can stand above or below the binder they belong to.

Target: human IL-12 receptor (IL-12Rβ1 and IL-12Rβ2) on HEK-Blue IL-12 reporter cells (human, UniProt P42701 24-662; Q99665 24-862)
Assay: cell-based or functional assay

Aklusion (Run 1): 52.9 fold | Aklusion (Run 2): 60.5 fold | Average Aklusion: 56.7 fold
B1: AK665 (Fc fusion)
chain 1: [human IgG1 Fc with changes left out here]GGSPGKIDACKRGDVTVKPSHVILLGSTVNITCSLKPRQGCFHYSRRNKLILYKFDRRINFHHGHSLNSQVTGLPLGTTLFVCKLACINSDEIQICGAEIFVGVAPEQPQNLSCIQKGEQGTVACTWERGRDTHLYTEYTLQLSGPKNLTWQKQCKDIYCDYLDFGINLTPESPESNFTAKVTAVNSLGSSSSLPSTFTFLDIVRPLPPWDIRIKFQKASVSRSTLYWRDEGLVLLNRLRYRPSNSRLWNMVNVTKAKGRHDLLDLKPFTEYEFQISSKLHLYKGSWSDWSESLRAQTPEE
chain 2: DKTHTCPPCPAPELLGGPSVFLFPPKPKDTLMISRTPEVTCVVVDVSHEDPEVKFNWYVDGVEVHNAKTKPREEQYASTYRVVSVLTVLHQDWLNGKEYKCKVSNKALPAPIEKTISKAKGQPREPQVYTLPPCRDELTKNQVSLWCLVKGFYPSDIAVEWESNGQPENNYKTTPPVLDSDGSFFLYSKLTVDKSRWQQGNVFSCSVMHEALHNHYTQKSLSLSPGGGSGGSGGSVPLSLYSGPIWELKKDVYVVELDWYPDAPGEMVVLTCDTPEEDGITWTLDQSSEVLGSGKTLTIQVKEFGDAGQYTCHKGGEVLSHSLLLLHKKEDGIWSTDILKDQKEPKNKTFLRCEAKNYSGRFTCWWLTTISTDLTFSVKSSRGSSDPQGVTCGAATLSAERVRGDNKEYEYSVECQEDSACPAAEESLPIEVMVDAVHKLKYENYTSSFFIRDIIKPDPPKNLQLKPLKNSRQVEVSWEYPDTWSTPHSYFSLTFSVQVQGKDNTEGRVFTDKTSATVICRKNASISVRAQDRYYSSSWSEWASVPCSGGGGSGGGGSGGGGSRNLPVATPDPGMFPCLHHSQNLLRAVSNMLQKARQTLEFYPCTSEEIDHEDITKDKTSTVEACLPLELTKNESCLNSRETSFITNGSCLASRKTSFMMALCLSSIYEDLKMYQVEFKTMNAKLLMDPKRQIFLDQNMLAVIDELMQALNFNSETVPQKSSLEEPDFYKTKIKLCILLHAFRIRAVTIDRVMSYLNAS

Aklusion (Run 1, lot AK666-01A): 72 fold | Aklusion (Run 1, lot AK666-02A): 70 fold | Aklusion (Run 2, lot AK666-01A): 81.5 fold | Aklusion (Run 2, lot AK666-02A): 62.4 fold | Average Aklusion (lot AK666-01A): 76.8 fold | Average Aklusion (lot AK666-02A): 66.2 fold
B3: AK666 (Fc fusion)
chain 1: [human IgG1 Fc with changes left out here]PGGSGPKIDACKRGDVTVKPSHVILLGSTVNITCSLKPRQGCFHYSRRNKLILYKFDRRINFHHGHSLNSQVTGLPLGTTLFVCKLACINSDEIQICGAEIFVGVAPEQPQNLSCIQKGEQGTVACTWERGRDTHLYTEYTLQLSGPKNLTWQKQCKDIYCDYLDFGINLTPESPESNFTAKVTAVNSLGSSSSLPSTFTFLDIVRPLPPWDIRIKFQKASVSRSTLYWRDEGLVLLNRLRYRPSNSRLWNMVNVTKAKGRHDLLDLKPFTEYEFQISSKLHLYKGSWSDWSESLRAQTPEE
chain 2: DKTHTCPPCPAPELLGGPSVFLFPPKPKDTLMISRTPEVTCVVVDVSHEDPEVKFNWYVDGVEVHNAKTKPREEQYASTYRVVSVLTVLHQDWLNGKEYKCKVSNKALPAPIEKTISKAKGQPREPQVYTLPPCRDELTKNQVSLWCLVKGFYPSDIAVEWESNGQPENNYKTTPPVLDSDGSFFLYSKLTVDKSRWQQGNVFSCSVMHEALHNHYTQKSLSLSPGGGSGGSVPLSLYSGPIWELKKDVYVVELDWYPDAPGEMVVLTCDTPEEDGITWTLDQSSEVLGSGKTLTIQVKEFGDAGQYTCHKGGEVLSHSLLLLHKKEDGIWSTDILKDQKEPKNKTFLRCEAKNYSGRFTCWWLTTISTDLTFSVKSSRGSSDPQGVTCGAATLSAERVRGDNKEYEYSVECQEDSACPAAEESLPIEVMVDAVHKLKYENYTSSFFIRDIIKPDPPKNLQLKPLKNSRQVEVSWEYPDTWSTPHSYFSLTFSVQVQGKDNTEGRVFTDKTSATVICRKNASISVRAQDRYYSSSWSEWASVPCSGGGGSGGGGSGGGGSRNLPVATPDPGMFPCLHHSQNLLRAVSNMLQKARQTLEFYPCTSEEIDHEDITKDKTSTVEACLPLELTKNESCLNSRETSFITNGSCLASRKTSFMMALCLSSIYEDLKMYQVEFKTMNAKLLMDPKRQIFLDQNMLAVIDELMQALNFNSETVPQKSSLEEPDFYKTKIKLCILLHAFRIRAVTIDRVMSYLNAS

More lines, now with the values behind:

B2: AK668 (Fc fusion)
chain 1: [human IgG1 Fc with changes left out here]GGSPGKIDACKRGDVTVKPSHVILLGSTVNITCSLKPRQGCFHYSRRNKLILYKFDRRINFHHGHSLNSQVTGLPLGTTLFVCKLACINSDEIQICGAEIFVGVAPEQPQNLSCIQKGEQGTVACTWERGRDTHLYTEYTLQLSGPKNLTWQKQCKDIYCDYLDFGINLTPESPESNFTAKVTAVNSLGSSSSLPSTFTFLDIVRPLPPWDIRIKFQKASVSRSTLYWRDEGLVLLNRLRYRPSNSRLWNMVNVTKAKGRHDLLDLKPFTEYEFQISSKLHLYKGSWSDWSESLRAQTPEE
chain 2: DKTHTCPPCPAPELLGGPSVFLFPPKPKDTLMISRTPEVTCVVVDVSHEDPEVKFNWYVDGVEVHNAKTKPREEQYASTYRVVSVLTVLHQDWLNGKEYKCKVSNKALPAPIEKTISKAKGQPREPQVYTLPPCRDELTKNQVSLWCLVKGFYPSDIAVEWESNGQPENNYKTTPPVLDSDGSFFLYSKLTVDKSRWQQGNVFSCSVMHEALHNHYTQKSLSLSPGGGSGGSGGSMPYDLYHPSGPIWELKKDVYVVELDWYPDAPGEMVVLTCDTPEEDGITWTLDQSSEVLGSGKTLTIQVKEFGDAGQYTCHKGGEVLSHSLLLLHKKEDGIWSTDILKDQKEPKNKTFLRCEAKNYSGRFTCWWLTTISTDLTFSVKSSRGSSDPQGVTCGAATLSAERVRGDNKEYEYSVECQEDSACPAAEESLPIEVMVDAVHKLKYENYTSSFFIRDIIKPDPPKNLQLKPLKNSRQVEVSWEYPDTWSTPHSYFSLTFSVQVQGKDNTEGRVFTDKTSATVICRKNASISVRAQDRYYSSSWSEWASVPCSGGGGSGGGGSGGGGSRNLPVATPDPGMFPCLHHSQNLLRAVSNMLQKARQTLEFYPCTSEEIDHEDITKDKTSTVEACLPLELTKNESCLNSRETSFITNGSCLASRKTSFMMALCLSSIYEDLKMYQVEFKTMNAKLLMDPKRQIFLDQNMLAVIDELMQALNFNSETVPQKSSLEEPDFYKTKIKLCILLHAFRIRAVTIDRVMSYLNAS
Aklusion (Run 1): 56.1 fold | Aklusion (Run 2): 55.6 fold | Average Aklusion: 55.8 fold

B4: AK667 (Fc fusion)
chain 1: [human IgG1 Fc with changes left out here]PGGSGPKIDACKRGDVTVKPSHVILLGSTVNITCSLKPRQGCFHYSRRNKLILYKFDRRINFHHGHSLNSQVTGLPLGTTLFVCKLACINSDEIQICGAEIFVGVAPEQPQNLSCIQKGEQGTVACTWERGRDTHLYTEYTLQLSGPKNLTWQKQCKDIYCDYLDFGINLTPESPESNFTAKVTAVNSLGSSSSLPSTFTFLDIVRPLPPWDIRIKFQKASVSRSTLYWRDEGLVLLNRLRYRPSNSRLWNMVNVTKAKGRHDLLDLKPFTEYEFQISSKLHLYKGSWSDWSESLRAQTPEE
chain 2: DKTHTCPPCPAPELLGGPSVFLFPPKPKDTLMISRTPEVTCVVVDVSHEDPEVKFNWYVDGVEVHNAKTKPREEQYASTYRVVSVLTVLHQDWLNGKEYKCKVSNKALPAPIEKTISKAKGQPREPQVYTLPPCRDELTKNQVSLWCLVKGFYPSDIAVEWESNGQPENNYKTTPPVLDSDGSFFLYSKLTVDKSRWQQGNVFSCSVMHEALHNHYTQKSLSLSPGGGSGGSMPYDLYHPSGPIWELKKDVYVVELDWYPDAPGEMVVLTCDTPEEDGITWTLDQSSEVLGSGKTLTIQVKEFGDAGQYTCHKGGEVLSHSLLLLHKKEDGIWSTDILKDQKEPKNKTFLRCEAKNYSGRFTCWWLTTISTDLTFSVKSSRGSSDPQGVTCGAATLSAERVRGDNKEYEYSVECQEDSACPAAEESLPIEVMVDAVHKLKYENYTSSFFIRDIIKPDPPKNLQLKPLKNSRQVEVSWEYPDTWSTPHSYFSLTFSVQVQGKDNTEGRVFTDKTSATVICRKNASISVRAQDRYYSSSWSEWASVPCSGGGGSGGGGSGGGGSRNLPVATPDPGMFPCLHHSQNLLRAVSNMLQKARQTLEFYPCTSEEIDHEDITKDKTSTVEACLPLELTKNESCLNSRETSFITNGSCLASRKTSFMMALCLSSIYEDLKMYQVEFKTMNAKLLMDPKRQIFLDQNMLAVIDELMQALNFNSETVPQKSSLEEPDFYKTKIKLCILLHAFRIRAVTIDRVMSYLNAS
Aklusion (Run 1): 126 fold | Aklusion (Run 2): 82.6 fold | Average Aklusion: 104 fold

B5: AK669 (Fc fusion)
chain 1: [human IgG1 Fc with changes left out here]PGGSGPKIDACKRGDVTVKPSHVILLGSTVNITCSLKPRQGCFHYSRRNKLILYKFDRRINFHHGHSLNSQVTGLPLGTTLFVCKLACINSDEIQICGAEIFVGVAPEQPQNLSCIQKGEQGTVACTWERGRDTHLYTEYTLQLSGPKNLTWQKQCKDIYCDYLDFGINLTPESPESNFTAKVTAVNSLGSSSSLPSTFTFLDIVRPLPPWDIRIKFQKASVSRSTLYWRDEGLVLLNRLRYRPSNSRLWNMVNVTKAKGRHDLLDLKPFTEYEFQISSKLHLYKGSWSDWSESLRAQTPEE
chain 2: DKTHTCPPCPAPELLGGPSVFLFPPKPKDTLMISRTPEVTCVVVDVSHEDPEVKFNWYVDGVEVHNAKTKPREEQYASTYRVVSVLTVLHQDWLNGKEYKCKVSNKALPAPIEKTISKAKGQPREPQVYTLPPCRDELTKNQVSLWCLVKGFYPSDIAVEWESNGQPENNYKTTPPVLDSDGSFFLYSKLTVDKSRWQQGNVFSCSVMHEALHNHYTQKSLSLSPGGGSGGSISSGLLSGRSSGPIWELKKDVYVVELDWYPDAPGEMVVLTCDTPEEDGITWTLDQSSEVLGSGKTLTIQVKEFGDAGQYTCHKGGEVLSHSLLLLHKKEDGIWSTDILKDQKEPKNKTFLRCEAKNYSGRFTCWWLTTISTDLTFSVKSSRGSSDPQGVTCGAATLSAERVRGDNKEYEYSVECQEDSACPAAEESLPIEVMVDAVHKLKYENYTSSFFIRDIIKPDPPKNLQLKPLKNSRQVEVSWEYPDTWSTPHSYFSLTFSVQVQGKDNTEGRVFTDKTSATVICRKNASISVRAQDRYYSSSWSEWASVPCSGGGGSGGGGSGGGGSRNLPVATPDPGMFPCLHHSQNLLRAVSNMLQKARQTLEFYPCTSEEIDHEDITKDKTSTVEACLPLELTKNESCLNSRETSFITNGSCLASRKTSFMMALCLSSIYEDLKMYQVEFKTMNAKLLMDPKRQIFLDQNMLAVIDELMQALNFNSETVPQKSSLEEPDFYKTKIKLCILLHAFRIRAVTIDRVMSYLNAS
Aklusion (Run 1): 36.3 fold | Aklusion (Run 2): 48.4 fold | Average Aklusion: 42.4 fold
